Results published in PubChem BioAssay AID1508642 (National Center for Advancing Translational Sciences (NCATS), 2021).
The whole screen tested about 43,000 compounds, of which about 200 (0.47%) were called active. Roughly 12% stayed inconclusive and do not appear here. Calls come from the whole dose curve; as a rule, active = well fitted cell-killing curve with a large enough effect; inconclusive = small, poorly fitted or top-dose-only effect, or effect the other way; inactive = flat fitted curve, though single readings scatter. The list shows a part of the results.

Assay: Cell viability qHTS assay in S16 Pmp22-F2sN cells; note: nearly all actives have a fitted effect of over 65% in size
Conditions: S16 Pmp22-F2sN Schwann cells (luciferase reporters placed in the Pmp22 gene) viability, CellTiter-Glo, 24 h; series mostly up to 57.5 µM; activity change, negative = cytotoxicity: at the top concentration
In short: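 Luminescence from CellTiter-Glo, read by CCD camera after a 15 min room-temperature incubation, served as the viability signal. Reporter Schwann cells (S16 Pmp22-F2sN) had been treated with pin-transferred compounds for 24 h at 37C.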
% is set by controls: 0 for no effect and ±100 for the full control effect.

| Structure (SMILES) | activity change, negative = cytotoxicity |
| --- | --- |
| COCCCNC(=O)C1CCN(c2nc3ccc(C)cc3[nH]2)CC1 | inactive: 12.5% |
| COc1cccc(N2CCN(C(=O)CCS(=O)(=O)c3ccc4c(c3)oc(=O)n4C)CC2)c1 | inactive: -20.4% |
| Cc1ccc(Cl)cc1Nc1nn2c(=O)c3ccc(C(=O)N4CCCC(C)C4)cc3nc2s1 (stereo unspecified) | inactive: 9.24% |
| CC(C)c1cnc2c(c1SCC(=O)Nc1cccc(F)c1)c(=O)n(C)c(=O)n2C | inactive: -10.1% |
| CCn1cc2nc(SCc3cccc(Cl)c3)n(Cc3ccc(C)cc3)c(=O)c2n1 | inactive: -3.67% |
| COc1ccc(CCNS(=O)(=O)c2cc(-c3cc(C)no3)ccc2C)cc1OC | inactive: -2.33% |
| O=C(Nc1cccc(F)c1)C1CCN(S(=O)(=O)c2cccc3nsnc23)CC1 | inactive: 8.41% |
| CCc1ccc(CN2CCc3nc(N4CCN(CC)CC4)ncc3C2)cc1 | inactive: 0.0154% |
| CN(C)c1ccc(CNC(=O)CCn2cccn2)cc1 | inactive: 1.03% |
| CCN(C(=O)CSc1nc(-c2ccc(C(C)C)cc2)no1)c1cccc(C)c1 | inactive: -11.5% |
| COc1ccc(CNC(=O)CCCn2nc(C)c3c(C)n(-c4ccccc4)nc3c2=O)cc1 | inactive: 5.13% |
| COc1ccc(OC)c(NS(=O)(=O)c2ccc(-c3cc(C)no3)s2)c1 | inactive: 2.57% |
| Cc1cccc(C(=O)Nc2nnc(S(=O)(=O)N(C)c3ccccc3C)s2)c1 | inactive: -3.97% |
| Cc1ccc(-n2c(-c3ccco3)nc3c(cnn3-c3ccccc3Cl)c2=O)cc1 | inactive: 8.49% |
| CSc1ccc(C2c3c(oc4cc(C)cc(C)c4c3=O)C(=O)N2Cc2ccco2)cc1 (stereo unspecified) | inactive: -1.22% |
| Cc1ccc(CCNC(=O)c2ccc3c(c2)N(Cc2cccc(Cl)c2)C(=O)c2ccccc2S3(=O)=O)cc1 | inactive: -14.4% |
| Cc1cc(C)cc(OC(C)C(=O)Nc2c(C(=O)c3ccccc3)oc3ccccc23)c1 (stereo unspecified) | inactive: 10.7% |
| c1ccc(CSc2nc3ncccc3[nH]2)cc1 | inactive: 6.47% |
| CCOc1ccc(CN(C(=O)c2cc(=O)c3cc(C)cc(C)c3o2)C2CCS(=O)(=O)C2)cc1 (stereo unspecified) | inactive: 5.26% |
| COc1cc(NC(=O)CCc2c(C)nc3cc(-c4ccccc4)nn3c2C)cc(OC)c1OC | inactive: 10.1% |
| Cc1ccc2c(c1)c(=O)c(C(=O)c1ccc3c(c1)OCO3)cn2Cc1ccc(Cl)cc1 | inactive: -3.94% |
| c1coc(-c2nc3n(n2)C2(CCCCC2)[C@@H]2CCCC[C@@H]2N3)c1 | inactive: 1.86% |
| CN(C(=O)CSc1nnc(-c2ccccc2F)o1)C1CCCCC1 | inactive: 0.511% |
| Cc1oc2ncnc(N3CCCCC3)c2c1C(=O)N1CCN(c2cccc(Cl)c2)CC1 | inactive: 1.2% |

| Structure (SMILES) | activity change, negative = cytotoxicity |
| --- | --- |
| CCCN1C(=O)C2(c3ccccc31)c1c(oc3ccc(F)cc3c1=O)C(=O)N2CCCOC(C)C (stereo unspecified) | inactive: -0.371% |
| Cc1ccc(NC(=O)C2CCCN(S(=O)(=O)c3cccc4cccnc34)C2)cc1 (stereo unspecified) | inactive: -17.5% |
| Cc1ccc(Cl)cc1NC(=O)c1oc2ccc(S(=O)(=O)N3CCCCC3)cc2c1C | inactive: -0.96% |
| CCc1nonc1NC(=O)c1oc2ccc(Br)cc2c1C | inactive: 11.7% |
| CCc1ccc(-n2c(=O)c3c4c(sc3n(CC(=O)N3CCC(C)CC3)c2=O)CCC4)cc1 | inactive: -1.93% |
| CC(=O)CSc1nnc2cc(C)c3cc(C)cc(C)c3n12 | inactive: 8.55% |
| Cc1nn(C(C)C(=O)N2CCN(c3ccc(Cl)cc3)CC2)c(=O)c2cc3occc3n12 (stereo unspecified) | inactive: -16.7% |
| Cc1ccc(S(=O)(=O)c2cn(Cc3cccc(C)c3)c3cc4c(cc3c2=O)OCO4)cc1 | inactive: -12.7% |
| Cc1ccc(Cl)cc1NC(=O)c1oc2ccc(S(=O)(=O)N(C)C3CCCCC3)cc2c1C | inactive: 0.767% |
| CCN(Cc1ccccc1)S(=O)(=O)c1ccc(-c2coc(C)n2)cc1 | inactive: 0.357% |
| Cc1cc(-n2c(C)nc3ccccc3c2=O)ccc1NC(=O)C(F)(F)F | inactive: 18.4% |
| O=C(Cn1ncc2c3ccccc3n(Cc3ccc(F)cc3)c2c1=O)NCc1cccs1 | inactive: -1.63% |
| CC(CNC(=O)c1ccc2nc(Cc3ccccc3)oc2c1)c1ccccc1 (stereo unspecified) | inactive: -3.06% |
| COc1ccc(NC(=O)CCCn2nc(C)c3sc4ccccc4c3c2=O)cc1 | inactive: 8.33% |
| COc1ccc(S(=O)(=O)NCCSc2nnnn2-c2ccccc2)cc1 | inactive: -13.8% |
| Cc1cc(C(=O)Nc2ccc(-n3c(C)nc4ccccc4c3=O)cc2)ccc1[N+](=O)[O-] | inactive: 15.4% |
| CC1CCCN(S(=O)(=O)c2ccc3c(c2)CCN3C(=O)CCC(=O)O)C1 (stereo unspecified) | inactive: 3.96% |
| CCC(C)Nc1ncnc2c1cnn2-c1ccc(F)cc1 (stereo unspecified) | inactive: -4.48% |
| O=C(CCC1N=C2c3ccccc3N=C(SCc3ccc(Cl)cc3)N2C1=O)N1CCN(c2ccccc2)CC1 (stereo unspecified) | inactive: 1.14% |
| COc1ccc(N2CCN(CCCNC(=O)Nc3ccccc3)CC2)cc1 | inactive: -7.16% |
| COC(=O)c1sccc1S(=O)(=O)N(CC(=O)NCc1ccc(C)cc1)c1ccc(C)cc1 | inactive: 16% |
| COc1ccc(-n2c(SCC(=O)NCc3ccc(C)cc3)nc3n[nH]c(C)c3c2=N)cc1 | inactive: 13.6% |
| Fc1ccc(-c2nc(Nc3cccc(C(F)(F)F)c3)nc3c2COc2ccccc2-3)cc1 | inactive: 3.25% |
| Cc1ccc(CSc2nnc3[nH]c(=O)cc(-c4ccccc4)n23)cc1 | inactive: -0.24% |

| Structure (SMILES) | activity change, negative = cytotoxicity |
| --- | --- |
| O=C(CSc1nnc(-c2ccc(F)cc2)o1)N1CCCc2ccccc21 | inactive: -0.901% |
| CCn1cc(C(=O)NCc2ccc(Cl)cc2)c(=O)c2cc(S(=O)(=O)N(C)C3CCCCC3)ccc21 | inactive: 4.82% |
| Cc1ccc(N(CC(=O)Nc2ccc(Cl)cc2)S(=O)(=O)c2cccc3nonc23)cc1 | inactive: -26.1% |
| CCOc1cc(CNC(=O)CN2CCSc3ccccc32)cc(OCC)c1OCC | inactive: 7.8% |
| COc1cccc(NC(=O)Cn2c(=O)n(Cc3ccccc3)c(=O)c3ccccc32)c1 | inactive: 3.65% |
| CN1C(C(=O)Nc2ccc(OC(F)(F)F)cc2)=CC(c2cccs2)=NS1(=O)=O | inactive: -15% |
| CCSc1nc2n(n1)C(c1ccc(C(=O)O)cc1)C(C(=O)Nc1ccccc1C)=C(C)N2 (stereo unspecified) | inactive: -3.14% |
| COc1ccc(NC(=O)c2oc3ccccc3c2NC(=O)COc2ccc(C(C)C)cc2)c(OC)c1 | inactive: 17.3% |
| O=C(Nc1ccccc1Cl)c1sc2cccc(Cl)c2c1Cl | inactive: -0.0428% |
| CCCS(=O)(=O)c1nc(S(=O)(=O)c2ccc(C)cc2)c(NC)s1 | inactive: -7.19% |
| COc1ccc(-n2c(=O)[nH]c3cc(C(=O)NCCc4ccccc4)ccc3c2=O)cc1OC | inactive: -19.5% |
| Cc1ccc(-n2ncc(C(=O)N3CCCCC3)c2C2CCN(C(=O)OC(C)(C)C)CC2)c(C)c1 | inactive: 4.48% |
| CCOC(=O)c1c(NC(=O)c2ccc(OC)cc2)sc2c1CCCCC2 | inactive: 2.28% |
| O=C(COc1ccccc1)Nc1ccc2nc(SCC(=O)N3CCOCC3)sc2c1 | inactive: -1.3% |
| COc1ccc(-c2nc3c(c(SCC(=O)N4CCCCC4)n2)Cc2cc(Cl)ccc2O3)cc1 | inactive: 25.9% |
| CN(C)c1ccc(CNC(=O)Cn2c(=O)oc3cc(S(=O)(=O)N4CCCCCC4)ccc32)cc1 | inactive: -4.63% |
| CC(=O)c1ccc(NC(=O)Cn2nc(N3CCN(c4ccccc4)CC3)ccc2=O)cc1 | inactive: 9.19% |
| CC(=O)c1sc(N2C(=O)c3oc4ccccc4c(=O)c3C2c2ccc(C)cc2)nc1C (stereo unspecified) | inactive: -0.896% |
| CCCn1c2ccccc2c2nnc(SCC(=O)Nc3cccc(C(C)=O)c3)nc21 | inactive: -19.5% |
| CCN(Cc1ccccc1)C(=O)c1cnn(-c2ccc(F)cc2)c1-n1cccc1 | inactive: 14.3% |
| CCCSc1nc2c([nH]c3ccccc32)c(=O)n1C | inactive: 4.68% |
| O=C(NCc1cccnc1)c1nn(-c2ccc(F)cc2)nc1CO | inactive: -1.04% |
| COc1ccccc1CNC(=O)CSC1=Nc2ccccc2N=C(c2ccc(F)cc2)C1 | inactive: 21.5% |
| CCc1ccc(NS(=O)(=O)c2ccc3[nH]cc(C(=O)NCCCOC(C)C)c(=O)c3c2)cc1 | inactive: 0.787% |

| Structure (SMILES) | activity change, negative = cytotoxicity |
| --- | --- |
| Cc1ccc(Cl)cc1N1CCN(S(=O)(=O)c2ccc3c(c2)CCN3C(=O)C2CCC2)CC1 | inactive: 6.24% |
| Cc1cccc(CSc2ncc(Cl)c(C(=O)Nc3nc4ccc(F)cc4s3)n2)c1 | inactive: -12.4% |
| COc1cc(NC(=O)Cn2cc(C(=O)c3ccc(F)cc3)c(=O)c3ccc(C)nc32)cc(OC)c1 | inactive: -20.6% |
| CCOc1ccc(NC(=O)c2ncoc2-c2ccco2)cc1 | inactive: -9.4% |
| O=C(Cn1c(=O)nc(-c2ccccc2)c2cc(Cl)ccc21)Nc1ccc(F)c(Cl)c1 | inactive: 10.9% |
| COc1cccc(CNC(=O)c2ccc(-n3c(C)cc4c3CCC(C)C4)cc2)c1 (stereo unspecified) | inactive: -3.53% |
| CC(C)NC(=O)c1ccc(NC(=O)N2CCCCc3ccccc32)cc1 | inactive: -2.47% |
| CCOC(=O)c1[nH]c2ccccc2c1NC(=O)c1ccc(Br)cc1 | inactive: 5.88% |
| COc1cccc(CNC(=O)C2CCN(S(=O)(=O)c3ccc4c(c3)CCCN4C(C)=O)CC2)c1 | inactive: 5.92% |
| Cc1ccc2c(c1)N(CCCC(=O)Nc1cccc(C(F)(F)F)c1)C(=O)CO2 | inactive: -18.2% |
| Cc1ccc(-c2cc(C(=O)NCc3ccccc3Cl)c3ccccc3n2)cc1C | inactive: -3.71% |
| O=C(Nc1ccccc1C(F)(F)F)n1ncc2cc(Cl)ccc21 | inactive: -2.96% |
| COc1ccc2cc3c(N)nn(C(=O)c4ccc(OC)c(OC)c4)c3nc2c1 | inactive: -1.18% |
| CCOc1ccc(-c2nc3c(c(SCC(=O)N4CCCCC4)n2)Cc2cccc(OC)c2O3)cc1 | inactive: 5.36% |
| Cc1ccccc1-c1nnn(CC(=O)Nc2sc3c(c2C#N)CCC(C(C)(C)C)C3)n1 (stereo unspecified) | inactive: 8.33% |
| Cc1ccc2ncc(C(=O)Nc3ccc(OC(F)(F)F)cc3)c(=O)n2c1 | inactive: 2.36% |
| O=c1[nH]c2ccc(NCc3ccc(-c4ccc(Br)cc4)o3)cc2[nH]1 | inactive: -23% |
| O=C1CCCc2cc(S(=O)(=O)N3CCCC(C(=O)NCc4ccc(Cl)cc4)C3)ccc2N1 (stereo unspecified) | inactive: 0.372% |
| COc1cc(OC)cc(-c2nc(-c3ccc4c(c3)[nH]c(=O)n4C)no2)c1 | inactive: 0.951% |
| CCc1ccc(NC(=O)Cn2c(=O)n(CCCCC(=O)NCCc3ccc(Cl)cc3)c(=O)c3ccccc32)cc1 | inactive: 10.3% |
| O=C(NCC(c1ccc(Cl)cc1)N1CCOCC1)c1ccccc1F (stereo unspecified) | inactive: 0.278% |
| CCOc1ccc(-c2nnc(SCC(=O)Nc3cccc(OC)c3)nc2-c2ccc(OCC)cc2)cc1 | inactive: 0.945% |
| COc1ccc(C(=O)NCC(c2ccc3c(c2)OCO3)N2CCN(c3ccccc3F)CC2)cc1 (stereo unspecified) | inactive: -21.1% |
| O=C(COc1ccc([N+](=O)[O-])cc1)Nc1nc2c(s1)CCCC2 | inactive: 0.876% |
